Several values for one entry are separate records, joined by “and”; a condition that tells them apart may be missing. Equal values may be shown once. Among all 94,000 compounds or so, about 6,200 (6.6%) were called active. Inconclusive means that the source gave no clear call. Such entries were picked first, then a sample of the others. The call rests on the fitted dose curve; in most records, active means well fitted inhibition curve with a large enough effect; inconclusive means small, poorly fitted or top-dose-only effect; inactive means flat fitted curve, though single readings scatter. Potencies of inconclusive entries are doubtful fits and often do not repeat.
Assay: Cytotoxic Profiling in HEK 293 Cell Line of Diverse Libraries Using Quantitative High-Throughput Screening; further: nearly all actives have a fitted effect of over 60% in size
Details: HEK 293 viability, ATP luminescence (CellTiter-Glo), 48-72 h; activity change, negative = cytotoxicity: at 115 µM (top of the series) unless noted; series mostly up to 115 µM
How it was run: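 Read-out: CellTiter-Glo ATP luminescence. Cells: HEK 293, 250 cells/well. Exposure: 48 or 72 hr, 37 degree Celsius.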
On the % scale 0 is the no-effect control and ±100 the full control effect; potency means the concentration at half of the fitted maximal effect; tags describe the fitted curve by direction and shape.

SMILES	activity change, negative = cytotoxicity	Potency	outcome
CCOCC(=O)N1CCC2(CC1)NCCc1c2[nH]c2ccc(OC)cc12	inactive: -10.2%	–	–
CCc1cc(=O)n(CC(=O)Nc2ccccc2C)c(-c2cccc(F)c2)n1	–	inconclusive: 79.4 µM [inhibitor, single point]	–
O=C(CC1CCOC2(CCN(Cc3cccs3)CC2)C1)N1CCOCC1 (centres undefined)	inactive: 7.64%	–	–
Cc1ccc(C2=NC3(CCN(C(=O)Cc4ccccc4Cl)CC3)ON2)cc1	–	inconclusive: 79.4 µM [inhibitor, partial curve]	–
CC[C@H]1CN(C(=O)N2CCOCC2)CC[C@H]1CC(=O)Nc1nccs1	–	inconclusive: 126 µM [inhibitor, single point]	–
Cn1cc(CNC(=O)C[C@@H]2C[C@H]3O[C@H](CNC4CCCCC4)[C@@H](O)[C@H]3O2)cn1	inactive: 1.33% [at 172 µM]	–	–
O=S(=O)(NCC1Cn2cccc2CN1Cc1cccnc1)c1ccc(F)cc1 (centres undefined)	–	inconclusive: 89.1 µM [inhibitor, single point]	–
CCOC(=O)CNC(=O)CCc1conc1-c1ccc(OC)cc1	inactive: -9.85%	–	–
O=C1NC2(CCCN(CC3CCCCC3)C2)Oc2ccccc21 (centres undefined)	–	inconclusive: 50.1 µM [inhibitor, full curve]	–
Cc1cc(NC(=O)C(C)(C)Oc2nn(CCOc3ccccc3)c3ccccc23)n(C)n1	–	inconclusive: 56.2 µM [inhibitor, partial curve, poor fit]	–
Cc1nn(C)c(C)c1CCC(=O)N[C@@H]1CN(c2ncccn2)C[C@H]1CO	–	–	inactive
COCC(=O)NC1CCN(c2ccnc3ccnn23)CC1	inactive: -6.91% [at 172 µM]	–	–
Cc1cc(CNC(=O)c2ccc(-c3ccccc3Cl)o2)n(C)n1	–	inconclusive: 50.1 µM [inhibitor, partial curve, poor fit]	–
CC(C)Cn1c(=O)c(C(=O)NCc2ccc(F)cc2)nc2cccnc21	–	inconclusive: 79.4 µM [inhibitor, partial curve, poor fit]	–
COc1ccccc1-c1ccc(C(=O)N2CCC(C(=O)NCC3CC3)CC2)cc1	–	inconclusive: 89.1 µM [inhibitor, single point]	–
Cn1c(CN2CCN3C(=O)NC[C@H]3C2)nc2ccccc21	–	inconclusive: 141 µM [inhibitor, single point]	–
COc1ccc(S(=O)(=O)N2CC(N(C3CCOCC3)S(C)(=O)=O)C2)cc1	–	–	inactive
COc1cccc(CN2C(=O)OC3(CCN(C(=O)Cc4cccc(F)c4)CC3)C2(C)c2cccnc2)c1 (centres undefined)	inactive: -5.7%	–	–
Cn1c(=O)n([C@H]2CCCN(C(=O)CCc3nc(-c4ccccc4)no3)C2)c2ncccc21	–	inconclusive: 50.1 µM [inhibitor, partial curve, poor fit]	–
Cc1scc(C(=O)N2CCCC3(CCOC3)C2)c1-c1ccccc1 (centres undefined)	–	inconclusive: 100 µM [inhibitor, single point]	–
O=C(C1CCCC1)N1CCN(CCCn2nc3n(c2=O)CCCC3)CC1	inactive: -11.8%	–	–
CC(=O)N1CCC(NC[C@@H]2C=C(C)[C@H](Cc3nc4ccc(C)cc4[nH]3)C[C@H]2C(C)C)CC1	–	inconclusive: 50.1 µM [inhibitor, partial curve, poor fit]	–

SMILES	activity change, negative = cytotoxicity	Potency	outcome
CCCC(=O)N1Cc2ccccc2CC2(CCN(CC3CCOCC3)CC2)C1	inactive: -6.65%	–	–
O=C(NCCc1ccccc1)c1ccc2nnc(Cc3ccc(Cl)cc3)n2c1	–	inconclusive: 39.8 µM [inhibitor, partial curve, poor fit]	–
COc1ccc(C2(C(=O)NC3CCCc4c3[nH]c3ccccc43)CCOCC2)cc1 (centres undefined)	–	inconclusive: 50.1 µM [inhibitor, partial curve, poor fit]	–
O=C(NC1CCN(Cc2cccc(-c3ccc(F)cc3F)c2)CC1)c1cccc(Cl)c1	–	active: 22.4 µM and inconclusive: 20 µM [inhibitor, full curve, poor fit]	–
Cc1cnc(C(=O)N[C@@H]2CCC[C@@H]2C(=O)NCc2ccc(F)cc2)cn1	inactive: -5.75%	–	–
O=C1CC(c2ccccc2)N(C(=O)C2CC2)CCCN(C(=O)Nc2ccccc2F)CCN1 (centres undefined)	inactive: -8.02%	–	–
COc1cccc(-c2cc(C3CCN(C(=O)Nc4cccc(Cl)c4C)CC3)[nH]n2)c1	–	inconclusive: 44.7 µM [inhibitor, partial curve, poor fit]	–
Cc1noc(C)c1S(=O)(=O)N(C)C1CCc2ccccc21 (centres undefined)	–	inconclusive: 35.5 µM [inhibitor, full curve, poor fit]	–
CCN1C(=O)COC[C@@H]1[C@H](O)c1ccc(NC(=O)c2cccc(F)c2)cc1	–	inconclusive: 79.4 µM [inhibitor, partial curve, poor fit]	–
Cc1cccc(-c2cccc(CN3CCC(NC(=O)c4ccc(Cl)nc4)CC3)c2)c1	–	active: 14.1 µM	–
CCCC1(CO)CCCN(C(=O)C2CCC(CO)CC2)C1 (centres undefined)	inactive: -9.38%	–	–
Cc1ccc(-c2cccc(CN3CCCC(NC(=O)c4ccccc4F)C3)c2)cc1Cl (centres undefined)	–	inconclusive: 39.8 µM [inhibitor, partial curve, poor fit]	–
O=C(c1cccc(OC2CN(C3CCCCCC3)C2)c1)N1CCCC1	–	inconclusive: 28.2 µM [inhibitor, partial curve, poor fit]	–
Cc1ccc([S+](=O)([O-])N2CCCC(c3nn(-c4ccccc4)c(=O)[nH]3)C2)cc1 (centres undefined)	–	inconclusive: 89.1 µM [inhibitor, single point]	–
CC(C)c1nc(CNC(=O)c2ccc(CC3CCCNC3)cc2)cs1 (centres undefined)	–	inconclusive: 31.6 µM [inhibitor, full curve]	–
Cc1cc(C2CCCN2C(=O)c2cc(F)ccc2F)on1 (centres undefined)	inactive: 3.04%	–	–
COc1ccc(Nc2ccnc(N3CCN([S+](=O)([O-])c4cccc(C(F)(F)F)c4)CC3)n2)cc1	–	active: 31.6 µM	–
O=C(C1CCCN1C(=O)c1ccc(C(F)(F)F)cc1)N1CCC(N2Cc3cccn3C2=O)CC1 (centres undefined)	–	inconclusive: 44.7 µM [inhibitor, partial curve, poor fit]	–
Cc1ccccc1N1Cc2c(NCC(C)(C)C)ncnc2N(C)CC1=O	inactive: -13.2%	–	–
O=C(NCCN1C(=O)C2(CCCCC2)C1c1ccccc1)C1CCC1 (centres undefined)	inactive: -3.62%	–	–
COc1ccccc1-c1ccc(CN2CCCCC2C(=O)NCc2cccc(Cl)c2)cc1 (centres undefined)	–	active: 22.4 µM	–
CCN1Cc2ccccc2NCCC1=O	–	inconclusive: 44.7 µM [inhibitor, partial curve, poor fit]	–

SMILES	activity change, negative = cytotoxicity	Potency	outcome
CN1CC(=O)N(C2CCCC2)Cc2c(NCCc3ccc(F)cc3)ncnc21	–	inconclusive: 56.2 µM [inhibitor, partial curve, poor fit]	–
O=C1COCC2(CN(c3ccccc3)C2)CN1c1ccc(OC(F)(F)F)cc1	–	active: 89.1 µM	–
CC1CCC2(CC1)NC(=O)N(CC(=O)NCc1cccc(Br)c1)C2=O (centres undefined)	–	inconclusive: 70.8 µM [inhibitor, partial curve, poor fit]	–
COc1cccc(-c2ncc3c(n2)OCCN(Cc2ccc(F)cc2F)C3=O)c1F	–	inconclusive: 112 µM [inhibitor, single point]	–
O=C(c1ccc(Cl)nc1)N1CCN(C(=O)c2nc3cccnc3n(Cc3ccccc3)c2=O)CC1	inactive: -21.4%	–	–
CCCc1nn(-c2cccc(C)c2)c(=O)n1CC(=O)NCc1ccc(C)o1	–	inconclusive: 35.5 µM [inhibitor, partial curve]	–
Cc1ccsc1CN1CCCCCNC(=O)[C@@H]2CCC[C@@H]21	–	inconclusive: 79.4 µM [inhibitor, partial curve, poor fit]	–
O=C(COc1cccc(-c2nnc3n2CCCC3)c1)Nc1ccc(Br)cc1	–	inconclusive: 79.4 µM [inhibitor, partial curve]	–
COc1ccc(NC(=O)c2cc3n(n2)CC(c2ccc4c(c2)OCO4)OC3)cc1Cl (centres undefined)	–	inconclusive: 50.1 µM [inhibitor, partial curve, poor fit]	–
FC(F)(F)c1ccc(-c2cnc([C@@H]3COCCN3Cc3ccncc3)[nH]2)cc1	–	inconclusive: 112 µM [inhibitor, single point]	–
CN(C)c1ccc(C(=O)N2CCC[C@H]2c2nc(-c3ccc(F)cc3)no2)cc1	–	inconclusive: 89.1 µM [inhibitor, single point]	–
COCCNc1ncccc1-c1noc([C@@H]2CCCN2C2CCC2)n1	–	inconclusive: 89.1 µM [inhibitor, partial curve]	–
O=C(NCc1ccccc1)C1=NO[C@@H]2CN(Cc3ccncc3)C[C@H]12	–	inconclusive: 126 µM [inhibitor, single point]	–
CN(CCc1ccccn1)[C@H]1[C@@H]2OC[C@@H](O2)[C@@H](NCc2ccc(OC(F)(F)F)cc2)[C@@H]1O	–	inconclusive: 50.1 µM [inhibitor, partial curve, poor fit]	–
CC(C(=O)NC1CC1)N1C(=O)COc2ccc(C(=O)COc3cccc(Cl)c3)cc21 (centres undefined)	–	inconclusive: 56.2 µM [inhibitor, partial curve, poor fit]	–
CC(C)C1=NOC2(CCN(Cc3cccc(C(F)(F)F)c3)CC2)C1	–	inconclusive: 100 µM [inhibitor, partial curve, poor fit]	–
COc1cc(OC)cc(C(=O)N2CCC[C@H]2c2nc(-c3ccc(OC)c(OC)c3)no2)c1	–	inconclusive: 79.4 µM [inhibitor, single point]	–
CC(=O)Nc1ccc(-c2ccc(=O)n3c2[C@@H]2C[C@@H](CN(S(=O)(=O)c4ccc(Cl)cc4)C2)C3)cc1	–	active: 14.1 µM	–
COc1ccc(-c2cc(N3CCCN(C(=O)c4ccc(C)c(F)c4)CC3)n[nH]2)cc1	–	inconclusive: 50.1 µM [inhibitor, partial curve, poor fit]	–
Cc1ccc(CN2CCCCCNC(=O)[C@@H]3CCC[C@@H]32)s1	–	inconclusive: 89.1 µM [inhibitor, partial curve, poor fit]	–
